To fix the notation:
B1: CPEB3 Ribozyme (parent)
chain: UAACAGGGGGCCACAGCAGAAGCGUUCACGUCGCAGCCCCUGUCAGAUUCUGGUGAAUCUGCGAAUUCUGCUGUAUAUCUC

The source gives no read counts; variants with many changes may rest on few reads.

The series covers variants of B1. Kind of series: self-cleavage, relative activity (ratio to wild type); higher = more cleavage; in vitro, sequencing. The procedure, abridged:
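Relative activity was defined as the cleaved/total read fraction for a variant divided by the same fraction for the unmutated ribozyme. CPEB3 self-cleaving ribozyme libraries were made by rounds of error-prone PCR, barcoded, and transcribed in vitro with T7 RNA polymerase for 5 hours at 37°C, and cleavage ran through transcription plus a 15 min DNase I step before EDTA. Illumina sequencing of template-switched reverse transcripts gave the reads, and DNA sequencing mapped the barcodes. Averages come from three batches, using variants with at least 5 reads.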
On to UAACAGGGGGCCACAGCAGAAGCGUCCACGUCGCAGCCCCUGUCAGAUUCUGGUGAAUCUGCGAAUUCUGCUGAGUAUCUC [U26C U74A A75G], for which the self-cleavage came to 0.76. In the case of UAACAGGGGGCCACAGCAGAAGCGUGCACGUCGCAGCCCCUGUCAGCUUCUGGUGAAUCUGCGAAUUCUGCUGUAUAACUC [U26G A47C U78A], the self-cleavage came out at 0.25.

As to UAACAGGGGGCCACAGCAGAAGCGUUAGCGUCGCAGCCCCAGUCAGAUUCUGGUGAAUCUGCGAAUUCCGCUGUAUAUCUC [C27A A28G U41A U69C], the self-cleavage is 0.1. To UAACAGGGGGCCACAGCAGAAGCGUUGACGUCGCAGCCCCUGUCAGAUUCUGGUGAAUCUGCGAAUUCUGCAGUGUAUCUC [C27G U72A A75G] belongs 0.11. Regarding UAACAGGGGGCCACAGCAGAAGCGUUAACGCCGCAGCCCCUGUCAGAUUCUGGUGAAUCUGCGAGUUCUGCUGUAUAUCUC [C27A U31C A65G], the self-cleavage came out at 0.18. To UAACAGGGGGCCACAGCAGAAGCGUGCACGUCGCUGCCCCUGUCAGAUUCUGGUGGAUCUGCGAAUUCUGCUGUAUAUCUC [U26G A35U A56G] belongs 0.13. To UAACAGGGGGCCACAGCAGAAGCGUUGACGUCGCAGCCCCCGUCAGAUUCUGGUGAGUCUGCGAAUUCUGCUGUAUAUCUC [C27G U41C A57G] belongs 0.12; to UAACAGGGGGCCACAGCAGAAGCGUUAACGUUGCAGCCCCUGUCAGAUUCAGGUGAAUCCGCGAAUCCAGCUGUAUAUCUC [C27A C32U U51A U60C U67C U69A], 0.05; to UAACAGGGGGCCACAGCAGAAGCGUUAGCGUCGCAGCCCCCGUCAGAUUCUGGUGAAUCUGCGAAUUCUGCUGUAUACCUC [C27A A28G U41C U78C], 0.17. Under UAACAGGGGGCCACAGCAGAAGCGUUGACGUCGCAGCCCCUGUCAGAUCCUGGUGAAUCUGCGGAUUCUGCUGUAUAUCUC [C27G U49C A64G] stands 0.13. Take UAACAGGGGGCCACAGCAGAAGCGUUAACGUCGCAGCCCCUGUCGGAUACUGGUGAAUCUGCGAAUACUGCUGUAUAUCUC [C27A A45G U49A U67A]: the self-cleavage amounted to 0.13. For the variant UAACAGGGGGCCACAGCAGAAGCGUCCACGUCGCAGCCCCUGUCAGAUUCUGGUGAAUCUGCGAAUUCUGCAGUAUAUCCC [U26C U72A U80C], the self-cleavage was found to be 0.6. To UAACAGGGGGCCACAGCAGAAGCGUGCUCGUCGCAGCCCCUGUCAGAUUCUGGUGAAUCUGCGAAUUCUGCUGUAAAUCUC [U26G A28U U76A] belongs 0.18; to UAACAGGGGGCCACAGCAGAAGCGUUAACGUCGCAGCCCCUGUCACACACUGGUGAAUCUGCGGAUUCUGCUGUAUAUCUC [C27A G46C U48C U49A A64G], 0.16.

For the variant UAACAGGGGGCCACAGCAGAAGCGUGCACGACGCAGCCCCUGUCAGAUUCUGGUGAAUCUGCGAGUUCUGCUGUAUAUCUC [U26G U31A A65G], the self-cleavage stood at 0.23.

Turning to UAACAGGGGGCCACAGCAGAAGCGUUGACGUCGCAGCCCCUGUCAGAUCCCGGUGAAUCUGCGAGUUCUGCUGUAUAUCUC [C27G U49C U51C A65G], the self-cleavage came to 0.13. Under UAACAGGGGGCCACAGCAGAAGCGUUAACGUCGCAGCUCCUGUCAGAUUCUGGUGAAUCUGCGAAUUCCGCUGUAUAUCUC [C27A C38U U69C] stands 0.12. Consider UAACAGGGGGCCACAGCAGAAGCGUUGACGUCGCAGCCCCUGUCAGGUUCUGGUGAAUCUGCGAAUUCUGCUGUAUAUCCC [C27G A47G U80C], for which the self-cleavage is 0.36. As for UAACAGGGGGCCACAGCAGAAGCGUGCACGUCGCAGCCCCUGUCAGAUUCUGGUGAAUCUGCGAUUUCAGCUGUAUAUCUC [U26G A65U U69A], the self-cleavage worked out at 0.32.

UAACAGGGGGCCACAGCAGAAGCGUUAACGUCGCAGUCCCUGUCAGAUUCUGGUGAAUCUGCGAACUCUACUGUAUAUCUC [C27A C37U U66C G70A]: the self-cleavage was 0.05. Under UAACAGGGGGCCACAGCAGAAGCGUGCACGCCGCAGCCCCUGCCAGAUUCUGGUGAAUCUGCGAAUUCUGCCGUAUAUCUC [U26G U31C U43C U72C] stands 0.45. UAACAGGGGGCCACAGCAGAAGCGUUAACGUCGCUGCCCCUGUCAGAUUCUGGUGAAUCUGCGAAUUCAGCUGUAUAUCUC [C27A A35U U69A]: the self-cleavage stood at 0.45. Turning to UAACAGGGGGCCACAGCAGAAGCGUCCACGUCGCAGCCCCUGUCAGAUUCUGGUGAAUCUGCGAAUUCCGCUGUACAUCUC [U26C U69C U76C], the self-cleavage turned out to be 0.45.

Consider UAACAGGGGGCCACAGCAGAAGCGUUAACGUCGCAGCCCCAGUCAGAUUCUGGUGAAUCUGCGAAUUCUGCCGUAUAUCUC [C27A U41A U72C], for which the self-cleavage is 0.12. Under UAACAGGGGGCCACAGCAGAAGCGUUAAAGUCGCAGCCCCUGUCAGAUUCUGGUGGAUCUGCGAGUUCUGCUGUAUAUCUC [C27A C29A A56G A65G] stands 0.35. As for UAACAGGGGGCCACAGCAGAAGCGUGCACGUCGCAGCCCCUGUCAGAUUCCGGUGAAUCUGCGAAUCCUGCUGUAUAUCUC [U26G U51C U67C], the self-cleavage came to 0.13. Under UAACAGGGGGCCACAGCAGAAGCGUUGACGUCGCAGCGCCUGUCAGAUUCUGGUGAAUCUGCGAAUUCUGCUGUGUAUCCC [C27G C38G A75G U80C] stands 0.05; under UAACAGGGGGCCACAGCAGAAGCGUUUACGUCGCUGCCCUUGUCAGAUUCUGGUGAAUCUGCGAAUUCUGCUGUAUAUCUC [C27U A35U C40U], 0.24; under UAACAGGGGGCCACAGCAGAAGCGUUGACGUCGCAGCCCCAGUCGGAUUCAGGUGAAUCUGCGUAUUCUGCUGUAUAUCUC [C27G U41A A45G U51A A64U], 0.12. Under UAACAGGGGGCCACAGCAGAAGCGUUUACGUCGCGGCCCCUGUCAGAUUCUGGUGAAUCUGCGAAUUCUGCUGUAUGUCUC [C27U A35G A77G] stands 0.3; under UAACAGGGGGCCACAGCAGAAGCGUUUCCGUCGCCGCCCCUGUCAGAUUCAGGUGAAUCUGCGAACUCUGCUGUAUAUCUC [C27U A28C A35C U51A U66C], 0.14. To UAACAGGGGGCCACAGCAGAAGCGUUGACGUCGCAGCCCCUGUCAGAUUCUGGUGAACCUGCGGAUUCAGCUGUUUAUCUC [C27G U58C A64G U69A A75U] belongs 0.07; to UAACAGGGGGCCACAGCAGAAGCGUGCACGUCGCAGCCCCUGUCAGAUUCAGGUGAAUCUGCGGAUUCUGCUGUAUAUCUC [U26G U51A A64G], 0.13.

Turning to UAACAGGGGGCCACAGCAGAAGCGUGCACGUCGCAGCUCCUGUCAGAUUCUGGAGGAUCUGCGAAUUCUGCCGUAUAUCUC [U26G C38U U54A A56G U72C], the self-cleavage was determined as 0.02.

Values taken from the RNAGym collection of RNA variant scans (doi:10.1093/nar/gkz1192).
